In the supplement of paper PMC11417369:
Some of the results follow.

System: PfSIP2 AP2 domain 1 (GST-tagged)
Assay: gcPBM binding intensity (ln(normalized median fluorescence intensity)); higher = stronger DNA binding
In short: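 Using an Agilent 4 × 180k array, primer-extended double-stranded 36-bp intergenic genomic probes and negative controls were exposed for 1 h to GST-fused P. falciparum DNA-binding domains expressed in E. coli. Binding was carried out in 1× PBS with 1% milk, 0.2 mg/ml BSA, 0.5% salmon testes DNA and 0.03% Triton X-100, and protein was detected with Alexa488 anti-GST antibody and a 488 nm scan. Binding intensity is the highest Masliner-normalised natural-log median intensity across replicate spots of either probe orientation.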

Row | Sequence | gcPBM binding intensity (ln)
1 | ATATATATAATAAGTGGTACAAGTTATTCATTAAAT [XGTACX_site7063] | 7.7
2 | AAAGAAAACGGACTTTGTACTTAAATATAATATAAA [XGTACX_site8585] | 6.99
3 | TTTTTTTATACAATTTTATATATTAAATATTATAAT [CACACA_negctrl_site226] | 6.81
4 | TAAAGTTATATATTATGTACATATTTGTATACATTT [XGTACX_site2516] | 7.12
5 | AACAACTATTAATTTACACACATGTATTTATTTTAC [CACACA_site5683] | 7.05
6 | TCTTATATATTTATTTGTACATATATATATATATAT [XGTACX_site7214] | 8.91
7 | AATTGTCAGAGAATATGTACTTAAGTATTTATTGTT [XGTACX_site1947] | 7.04
8 | ATAAAAAAATAAAACACACACATATATATTATATAT [CACACA_site2810] | 7.12
9 | TAAATAAAAAAACACACACACATATATATATATATA [CACACA_site2269] | 9.47
10 | AATAAGATATCTACAACACACATTTAATTTTTTTTT [CACACA_site1641] | 6.86
11 | AATCATAAAGAACATATAATATATATATATATATAT [CACACA_negctrl_site316] | 9.54
12 | AATGCATTGATTGCATTCAAAAAAAAAAAAAAAAAA [XGTACX_negctrl_site597] | 7.12
13 | AATATATGCTTTCGTTATATTAAATTCAATTTAATG [GTGCAC_negctrl_site76] | 6.95
14 | TGTATTACGAAAAAATGTACAGAAAAAGAAACAAAA [XGTACX_site2777] | 7.23
15 | TTTGTCATAAGCAATGCATGTAAGTTTCTGACATTA [TGCATGCA_site1007] | 6.95
16 | TGGGATAGATCATTTACACACACAAAAAAAAAAAAA [CACACA_site2140] | 6.82
17 | ATTTATAAAATTAATAGTACATATATTTATATATAT [XGTACX_site4173] | 7.63
18 | TATTGCACAAAATAATTTTATTATACTTTATGTTAG [TGCATGCA_negctrl_site574] | 6.93
19 | ATTTGGCATAGACACACACACACACGCACGCACATA [CACACA_site6424] | 7.74
20 | TATGTTCATCATAGCACACATATATAAATTACAACA [CACACA_site3533] | 6.98
21 | CAAAAATAAACTATAGTACACACTTATTATTATGAA [CACACA_site2702] | 6.89
22 | TTTTTATGTAGAATTTTTTTATTTTTTCAAAATGGA [CACACA_negctrl_site166] | 6.69

Row | Sequence | gcPBM binding intensity (ln)
23 | ATTGTAATCATATGAAGTACTAATATATATTTTAAT [XGTACX_site8350] | 7.04
24 | AATTTTAAAAATATAACACACATATATAAAATATAT [CACACA_site3610] | 6.83
25 | AATGAAGAAAAAAAAAGTACATTATTTTTAAAACTT [XGTACX_site563] | 6.79
26 | TTTTAAATAAAATATTGTACATTAAAATTGTAATAT [XGTACX_site2128] | 6.83
27 | AAGCAAACATATTAATGTACACACACCCACACACAA [XGTACX_site5806] | 7.18
28 | TAAGATAAATGATAAAGTACTTTTTTTTTTTAAATA [XGTACX_site2326] | 6.77
29 | ATTATAAATATGTATATACACACTTTTAATATTCAT [CACACA_site9367] | 7
30 | AGTAAAAAAAAAAAAAAAAAAAAAAAAAAAAAAAAA [GTGCAC_negctrl_site147] | 7.11
31 | TATTAATATTTTTGTTGTACTTAAAAATGATGGTAG [XGTACX_site3501] | 7.4
32 | TATTATTTTAATTATTCACACATTATTATAAAAATT [CACACA_site5538] | 6.99
33 | CATATACACGAACACACACACATATAAATAAATATA [CACACA_site6379] | 7.32
34 | GGAATATTAAAAAAATGTACAAAAAATAATATCCAT [XGTACX_site2596] | 6.99
35 | TATAATGTTAAATAATGTACATATATTTTTTTTTTT [XGTACX_site4722] | 6.98
36 | TATATATATTAAAAAGTGCATTATTCATATTATATA [GTGCAC_site9400] | 9.15
37 | TTACAATTTAATATATGTACATATTTGTGATTTATC [XGTACX_site2911] | 6.93
38 | TTTATTAATAATTATACACACATATAAAATGAATAA [CACACA_site1359] | 7.01
39 | AAAATATCTTGTTACTGTACAAATATAAATAAATAC [XGTACX_site3684] | 7.11
40 | ATATATACGTATGAATGTATATTTGTTTGAATTTTT [CACACA_negctrl_site524] | 6.83
41 | TTTATATATTAATATGCACACACAAGAAGTAATTAT [CACACA_site9045] | 8.15
42 | AATAATAACATACAGACACACACGTAAAAGCACGTG [CACACA_site253] | 6.86
43 | AATGGGTAAACATACACACACACATATATATATATA [CACACA_site1991] | 9.49
